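48-hour exposure; five concentrations; linearly interpolated endpoints. GI50 is the concentration that inhibits growth by half. TGI marks complete inhibition of growth.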
Tested on: NCI-H322M lung
Assay: growth of human tumour cells (NCI), 48 h

| Structure (SMILES) | GI50 | TGI |
| --- | --- | --- |
| Nc1cc(-c2c[nH]c3ccc(Cl)cc23)nc2cc(-c3c[nH]c4ccccc34)nn12 | 3.28 µM | 13.4 µM |
| COc1ccc(-c2nc(S(=O)(=O)c3ccc(C)cc3)c(S(C)(=O)=O)o2)cc1 | 14.8 µM | 28 µM |

Source: PubChem BioAssay (NCI)
